# About 1,400 (0.36%) of roughly 390,000 compounds were called active. Inconclusive means that the source gave no clear call. Such entries were picked first, then a sample of the others. Calls come from the whole dose curve; as a rule, active = well fitted inhibition curve with a large enough effect; inconclusive = small, poorly fitted or top-dose-only effect; inactive = no such curve, though single readings can be large or run the other way. A potency beside an inconclusive call is a rough fit, not a confirmed value.
# Target: Flap endonuclease 1 (Homo sapiens) (UniProt P39748)
# Sequence of UniProt P39748 (P39748 whole entry, looked up): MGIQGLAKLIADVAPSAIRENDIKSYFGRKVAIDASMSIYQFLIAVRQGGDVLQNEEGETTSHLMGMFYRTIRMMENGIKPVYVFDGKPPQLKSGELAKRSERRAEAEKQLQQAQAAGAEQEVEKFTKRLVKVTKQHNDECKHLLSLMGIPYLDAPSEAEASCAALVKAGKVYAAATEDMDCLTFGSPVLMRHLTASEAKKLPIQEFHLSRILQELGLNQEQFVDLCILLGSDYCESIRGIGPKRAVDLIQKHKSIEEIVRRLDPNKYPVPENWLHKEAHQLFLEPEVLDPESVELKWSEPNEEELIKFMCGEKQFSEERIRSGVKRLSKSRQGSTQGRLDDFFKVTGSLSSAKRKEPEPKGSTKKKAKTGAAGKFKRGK
# Assay: qHTS Assay for the Inhibitors of Human Flap endonuclease 1 (FEN1). Note: nearly all actives have a fitted effect of over 65% in size.
# Details: Recombinant FEN1 flap cleavage, fluorescence, 15 min; series mostly up to 114 µM
# In short: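 Nuclease activity of 10 nM FEN1 was measured after 15 min of room-temperature exposure to titrated compounds, by adding 50 nM flap substrate and reading plates at 0 and 15 min.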
# Potency is the fitted concentration of half-maximal effect; tags give direction and shape of the fitted curve.
row,Structure (SMILES),Potency
1,COc1ccc(C(CNC(=O)c2ccc(S(=O)(=O)Nc3cccc(C)c3C)cc2)N2CCOCC2)cc1 (stereo not given),inactive
2,CN(C)c1ccc(-c2nc(-c3cccs3)c(-c3cccs3)[nH]2)cc1,inactive
3,CCOc1cc(/C=C2\C(=O)NN(c3ccccc3)C2=O)cc([N+](=O)[O-])c1O,"inconclusive: 50.1 µM [inhibitor, partial curve]"
4,COc1cc(-c2nc(=S)[nH][nH]2)cc(OC)c1OC,"inconclusive: 89.1 µM [inhibitor, single point]"
5,CN(C)c1ccc2c(c1)OC(N)=C(C#N)C2c1cccc(F)c1 (stereo not given),"inconclusive: 79.4 µM [inhibitor, partial curve, poor fit]"
6,O=c1cc(-c2c(O)c3ccccc3n(Cc3ccccc3)c2=O)[nH][nH]1,"inconclusive: 44.7 µM [inhibitor, partial curve, poor fit]"
7,S=C(NCCCc1cnc[nH]1)NCCCN(CCc1ccc(Cl)cc1)c1ccc(Br)cn1,inactive
8,C[C@]12CCC[C@H](O1)c1c(cc3c(c1O)C(=O)c1c(O)cc(O)cc1C3=O)O2,"inconclusive: 79.4 µM [inhibitor, partial curve]"
9,CCOC(=O)C1=C(COC(=O)c2ccc([N+](=O)[O-])s2)NC(=O)NC1C (stereo not given),"inconclusive: 17.8 µM [inhibitor, partial curve, poor fit]"
10,COc1cc(/C=C2\C(=O)ON=C2c2ccccc2)cc(Br)c1O,"inconclusive: 89.1 µM [inhibitor, single point]"
11,Cc1cc(=O)oc2cc(OCC(=O)N/N=C/c3ccccc3[N+](=O)[O-])ccc12,"inconclusive: 63.1 µM [inhibitor, partial curve, poor fit]"
12,COc1cc(/C=N/NC(=O)c2cc3ccccc3cc2O)ccc1OCCN1CCCCC1,"inconclusive: 89.1 µM [inhibitor, single point]"
13,CCOc1ccc(CNC(=O)c2ccccc2NC(=O)c2nsc3ccccc23)cc1,inactive
14,CCN1CCN(c2ccc(N=Cc3ccc(O)cc3O)cc2)CC1,"inconclusive: 89.1 µM [inhibitor, single point]"
15,Nc1cc2nsnc2cc1Br,"inconclusive: 89.1 µM [inhibitor, single point]"
16,CC(C)C[C@@H](CO)N(Cc1ccccc1)S(=O)(=O)N(Cc1ccccc1)[C@@H](CO)CC(C)C,"inconclusive: 28.2 µM [inhibitor, partial curve, poor fit]"
17,CCOC(=O)c1c(CSc2ccc(C)cc2)n(C)c2cc(Br)c(O)c(CN(C)C)c12,"inconclusive: 70.8 µM [inhibitor, partial curve, poor fit]"
18,CCCC(=O)NC1CC(=O)N(c2ccc3c(c2)OCCO3)C1 (stereo not given),inactive
19,CCn1ncc(CN2CCCC(C(=O)Nc3cccc(-c4cc5ccccc5[nH]4)c3)C2)c1C (stereo not given),"inconclusive: 79.4 µM [inhibitor, partial curve, poor fit]"
20,Nc1c(O)ccc2c1C(=O)c1ccccc1C2=O,active: 50.1 µM

row,Structure (SMILES),Potency
1,COc1ccc2nc(C)cc(SCC(=O)N/N=C/c3ccc(O)c(O)c3)c2c1,"inconclusive: 31.6 µM [inhibitor, full curve]"
2,C=CCOC(=O)/C=C/C(=O)NC(N)=O,"inconclusive: 15.8 µM [inhibitor, full curve]"
3,CCOC(=O)C1CCCN(C(=O)C2CCN(S(=O)(=O)c3ccc(Cl)c(C(F)(F)F)c3)CC2)C1 (stereo not given),"inconclusive: 100 µM [inhibitor, partial curve, poor fit]"
4,O=C1SC(SCc2ccccc2Cl)=N/C1=C\c1ccc(C(=O)O)cc1,"inconclusive: 50.1 µM [inhibitor, partial curve, poor fit]"
5,COc1ccc(/C=N/n2cnc3c([nH]c4ccc(C)cc43)c2=O)cc1CN1CCCC1,"inconclusive: 89.1 µM [inhibitor, single point]"
6,O=[N+]([O-])c1ccc2c(OCc3nnc(-c4ccccc4Br)o3)ncnc2c1,"inconclusive: 8.91 µM [inhibitor, partial curve, poor fit]"
7,CN1CCN(c2nc(-c3cccs3)nc3ccccc23)CC1,"inconclusive: 50.1 µM [inhibitor, partial curve]"
8,COC(=O)c1c(NC(=O)c2ccc([N+](=O)[O-])o2)sc2c1CCN(C(C)C)C2,"inconclusive: 44.7 µM [inhibitor, partial curve]"
9,CCc1ccc(OCC(=O)NCC(c2ccc(Cl)cc2)N2CCCCC2)cc1 (stereo not given),"inconclusive: 44.7 µM [inhibitor, partial curve, poor fit]"
10,CC1CC(C)CN(CC(O)COCc2ccccc2F)C1 (stereo not given),inactive
11,c1ccc(CNc2ncnc3nc(N4CCOCC4)[nH]c23)cc1,"inconclusive: 56.2 µM [inhibitor, partial curve, poor fit]"
12,CC(N=Cc1cccc(O)c1O)c1ccccc1 (stereo not given),active: 35.5 µM
13,Cc1ccc(C)c(NC(=O)CSc2nc3nc(-c4cccs4)cc(C(F)(F)F)c3c(=O)[nH]2)c1,"inconclusive: 56.2 µM [inhibitor, partial curve, poor fit]"
14,Cc1ccc2c(c1)C(c1ccccc1)N(C(=O)COc1ccc(Cl)cc1Cl)CC(=O)N2 (stereo not given),inactive
15,CCN(CC)CCCNC(=O)c1csc(Nc2cccc3ccccc23)n1,"inconclusive: 79.4 µM [inhibitor, partial curve, poor fit]"
16,CC(C)(C)c1cc(CSC(=S)NC2CCS(=O)(=O)C2)c(Br)c(C(C)(C)C)c1 (stereo not given),"inconclusive: 79.4 µM [inhibitor, partial curve, poor fit]"
17,O=[N+]([O-])c1ccc(-n2nnnc2-c2ccccc2)cc1,"inconclusive: 89.1 µM [inhibitor, single point]"
18,COc1cc(/C=C(\CC(=O)O)c2nc3ccccc3s2)cc(OC)c1O,"inconclusive: 50.1 µM [inhibitor, partial curve]"
19,Nc1ccc(O)c2c1C(=O)c1ccccc1C2=O,active: 35.5 µM
20,Cc1nc(C)c(C(=O)Nc2nc3c(C)cccc3s2)o1,"inconclusive: 50.1 µM [inhibitor, partial curve, poor fit]"

# — PubChem BioAssay AID588795 (National Center for Advancing Translational Sciences (NCATS), 2011)
